# According to the supplement of paper PMC8728848:
# Some of the results follow.
# B1: AFL5 (Aspergillus fumigatus), Q4WB00 (protein)
# chain: MDNFMEMTKKLGHQPELLRLRALDATYDDALEGKLVVAPLDMSEPGKKILDSGTADGTWLRNVRSKQSVPHDYYGSDVEGELFPKDPDGITYFAHSFKDPWPQQYLGFFDLVHIRGSLAGSAPEGPAPVIQNLTTLLKPGGWVQLMEMNAFSPPPNGPAMTDFAKMASEMFTGIGVGDFANNNKSMLEDAGLKNVQEKRVIVNLGKKAKPELHDQSIHGVTGPIVPLTSVARTVKSSFTGEQLDALPARVKEELETEGGQVEMIIAFGQKA
# Tests used:
# Experiment in all cases: glycan array binding signal (z-score within array); higher = stronger binding
# Conditions in all cases: glycan notation: IUPAC condensed, linker removed
# [1] = target: Gal(a1-6)Glc
# Procedure, shortened: (§1)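 Columns mapping to the same glycan were averaged after glycan names were converted to IUPAC-condensed notation. The data come from 3228 arrays in the Consortium for Functional Glycomics database, limited to those with an available protein sequence. Binding is reported as a within-array Z-score averaged across arrays of one protein sequence and across linkers.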
# [2] = target: Gal(b1-2)Gal
# Procedure, shortened: as §1
# [3] = target: Gal(b1-3)Gal
# Procedure, shortened: as §1
# [4] = target: Gal(b1-3)Gal(b1-4)GlcNAc
# Procedure, shortened: as §1
# [5] = target: Gal(b1-3)GalNAc
# Procedure, shortened: as §1
# [6] = target: Gal(b1-3)GalNAc(a1-3)[Fuc(a1-2)]Gal(b1-4)Glc
# Procedure, shortened: as §1
# [7] = target: Gal(b1-3)GalNAc(a1-3)[Fuc(a1-2)]Gal(b1-4)GlcNAc
# Procedure, shortened: as §1
# [8] = target: Gal(b1-3)GalNAc(b1-3)Gal
# Procedure, shortened: as §1
# [9] = target: Gal(b1-3)GalNAc(b1-3)Gal(a1-4)Gal(b1-4)Glc
# Procedure, shortened: as §1
# [10] = target: Gal(b1-3)GalNAc(b1-4)Gal(b1-4)Glc
# Procedure, shortened: as §1
# [11] = target: Gal(b1-3)GalNAc(b1-4)[Neu5Ac(a2-3)]Gal(b1-4)Glc
# Procedure, shortened: as §1
# [12] = target: Gal(b1-3)GlcNAc
# Procedure, shortened: as §1
# [13] = target: Gal(b1-3)GlcNAc(a1-3)Gal(b1-4)GlcNAc
# Procedure, shortened: as §1
# [14] = target: Gal(b1-3)GlcNAc(a1-6)Gal(b1-4)GlcNAc
# Procedure, shortened: as §1
# [15] = target: Gal(b1-3)GlcNAc(b1-2)Man
# Procedure, shortened: as §1
# [16] = target: Gal(b1-3)GlcNAc(b1-2)Man(a1-3)[Gal(b1-3)GlcNAc(b1-2)Man(a1-6)]Man(b1-4)GlcNAc(b1-4)GlcNAc
# Procedure, shortened: as §1
# [17] = target: Gal(b1-3)GlcNAc(b1-2)Man(a1-3)[Gal(b1-3)GlcNAc(b1-2)Man(a1-6)]Man(b1-4)GlcNAc(b1-4)[Fuc(a1-6)]GlcNAc
# Procedure, shortened: as §1
# [18] = target: Gal(b1-3)GlcNAc(b1-2)Man(a1-3)[GlcNAc(b1-4)][Gal(b1-3)GlcNAc(b1-2)Man(a1-6)]Man(b1-4)GlcNAc(b1-4)GlcNAc
# Procedure, shortened: as §1
# [19] = target: Gal(b1-3)GlcNAc(b1-2)[Gal(b1-3)GlcNAc(b1-6)]Man(a1-6)[Gal(b1-3)GlcNAc(b1-2)Man(a1-3)]Man(b1-4)GlcNAc(b1-4)GlcNAc
# Procedure, shortened: as §1
# [20] = target: Gal(b1-3)GlcNAc(b1-3)Gal(b1-3)GlcNAc
# Procedure, shortened: as §1
# [21] = target: Gal(b1-3)GlcNAc(b1-3)Gal(b1-4)Glc
# Procedure, shortened: as §1
# [22] = target: Gal(b1-3)GlcNAc(b1-3)Gal(b1-4)GlcNAc
# Procedure, shortened: as §1
# [23] = target: Gal(b1-3)GlcNAc(b1-3)Gal(b1-4)GlcNAc(b1-2)Man(a1-3)[Gal(b1-3)GlcNAc(b1-3)Gal(b1-4)GlcNAc(b1-2)Man(a1-6)]Man(b1-4)GlcNAc(b1-4)GlcNAc
# Procedure, shortened: as §1
# [24] = target: Gal(b1-3)GlcNAc(b1-3)Gal(b1-4)GlcNAc(b1-2)[Gal(b1-3)GlcNAc(b1-3)Gal(b1-4)GlcNAc(b1-6)]Man(a1-6)[Gal(b1-3)GlcNAc(b1-3)Gal(b1-4)GlcNAc(b1-2)Man(a1-3)]Man(b1-4)GlcNAc(b1-4)[Fuc(a1-6)]GlcNAc
# Procedure, shortened: as §1
# [25] = target: Gal(b1-3)GlcNAc(b1-3)Gal(b1-4)GlcNAc(b1-3)Gal(b1-4)GlcNAc(b1-2)[Gal(b1-3)GlcNAc(b1-3)Gal(b1-4)GlcNAc(b1-3)Gal(b1-4)GlcNAc(b1-6)]Man(a1-6)[Gal(b1-3)GlcNAc(b1-3)Gal(b1-4)GlcNAc(b1-3)Gal(b1-4)GlcNAc(b1-2)Man(a1-3)]Man(b1-4)GlcNAc(b1-4)[Fuc(a1-6)]GlcNAc
# Procedure, shortened: as §1
# [26] = target: Gal(b1-3)GlcNAc(b1-3)Gal(b1-4)GlcNAc(b1-6)[Gal(b1-3)GlcNAc(b1-3)]Gal(b1-4)Glc
# Procedure, shortened: as §1
# [27] = target: Gal(b1-3)GlcNAc(b1-3)Gal(b1-4)[Fuc(a1-3)]GlcNAc
# Procedure, shortened: as §1
# [28] = target: Gal(b1-3)GlcNAc(b1-3)Gal(b1-4)[Fuc(a1-3)]GlcNAc(b1-6)[Gal(b1-3)GlcNAc(b1-3)]Gal(b1-4)Glc
# Procedure, shortened: as §1
# [29] = target: Gal(b1-3)GlcNAc(b1-3)GalNAc
# Procedure, shortened: as §1
# [30] = target: Gal(b1-3)GlcNAc(b1-6)Gal(b1-4)GlcNAc
# Procedure, shortened: as §1
# [31] = target: Gal(b1-3)GlcNAc(b1-6)GalNAc
# Procedure, shortened: as §1
# [32] = target: Gal(b1-3)GlcNAc(b1-6)[Gal(b1-3)]GalNAc
# Procedure, shortened: as §1
# [33] = target: Gal(b1-3)GlcNAc6S
# Procedure, shortened: as §1
# [34] = target: Gal(b1-3)[Fuc(a1-4)]GlcNAc
# Procedure, shortened: as §1
# [35] = target: Gal(b1-3)[Fuc(a1-4)]GlcNAc(b1-2)Man
# Procedure, shortened: as §1
# [36] = target: Gal(b1-3)[Fuc(a1-4)]GlcNAc(b1-2)Man(a1-3)[Gal(b1-3)[Fuc(a1-4)]GlcNAc(b1-2)Man(a1-6)]Man(b1-4)GlcNAc(b1-4)[Fuc(a1-6)]GlcNAc
# Procedure, shortened: as §1
# [37] = target: Gal(b1-3)[Fuc(a1-4)]GlcNAc(b1-3)Gal(b1-3)[Fuc(a1-4)]GlcNAc
# Procedure, shortened: as §1
binder,measurement,setting,value
B1,glycan array binding signal (z-score),[1],-0.614
same,glycan array binding signal (z-score),[2],-0.741
same,glycan array binding signal (z-score),[3],-0.063
same,glycan array binding signal (z-score),[4],-0.248
same,glycan array binding signal (z-score),[5],-0.339
same,glycan array binding signal (z-score),[6],0.173
same,glycan array binding signal (z-score),[7],-0.118
same,glycan array binding signal (z-score),[8],0.135
same,glycan array binding signal (z-score),[9],-0.336
same,glycan array binding signal (z-score),[10],0.134
same,glycan array binding signal (z-score),[11],-0.168
same,glycan array binding signal (z-score),[12],-0.272
same,glycan array binding signal (z-score),[13],0.488
same,glycan array binding signal (z-score),[14],0.179
same,glycan array binding signal (z-score),[15],0.036
same,glycan array binding signal (z-score),[16],0.376
same,glycan array binding signal (z-score),[17],0.328
same,glycan array binding signal (z-score),[18],-0.187
same,glycan array binding signal (z-score),[19],0.203
same,glycan array binding signal (z-score),[20],-0.431
same,glycan array binding signal (z-score),[21],-0.603
same,glycan array binding signal (z-score),[22],-0.242
same,glycan array binding signal (z-score),[23],-0.372
same,glycan array binding signal (z-score),[24],1.17
same,glycan array binding signal (z-score),[25],-0.171
same,glycan array binding signal (z-score),[26],-0.412
same,glycan array binding signal (z-score),[27],0.029
same,glycan array binding signal (z-score),[28],-0.146
same,glycan array binding signal (z-score),[29],0.324
same,glycan array binding signal (z-score),[30],0.137
same,glycan array binding signal (z-score),[31],0.008
same,glycan array binding signal (z-score),[32],-0.782
same,glycan array binding signal (z-score),[33],-0.19
same,glycan array binding signal (z-score),[34],-0.362
same,glycan array binding signal (z-score),[35],-0.142
same,glycan array binding signal (z-score),[36],-0.37
same,glycan array binding signal (z-score),[37],-0.726
